# Paper PMC12136788
# The other results are listed elsewhere or left out.
# B1: chr5:138511037:138511180:-|CDS|ENSG00000120705|unk|total|mutant (ssRNA)
# RNA: GGGAGUUCUACAGUCCGACGAUCCACGGGCAAGUACUGUUUUGGCGUUGAAGAUACACUAAAGGCUUUGGAAAUGGGAGCUGCCGAAAUUCUAACCGUCUAUGAAAAUCUGGAUAUAAUGAGAUAUGUUCUUCAUUGCCAAGGCAACAGAGGAUUGAGCAUCA
# B2: chr2:16549458:16552935:-|three_prime_utr|ENSG00000197872|control|control|control (ssRNA)
# RNA: GGGAGUUCUACAGUCCGACGAUCUUGCUACUGGAGUCCUUUAACAACAUCUAUAACGAUAAAAAAUUCCUAAUUGUUUGUGGUAGUAUUUUAAUUCUAGAUGUGUUAUCUCUCUGGGAAGUAUAGUUUAUAGAAACACAAAAUCAACAGAGGAUUGAGCAUCA
# B3: chr10:58277235:58277315:+|CDS|ENSG00000122873|msi1_unk|total|mutant (ssRNA)
# RNA: GGGAGUUCUACAGUCCGACGAUCUAAAGAUCAUCGAAAUAAAGCUAUGAUAAACCUUCACAUCCAGAAAGACAACCCCAAGACCGUACAUGCUUUUGACAUGGAGGAUUUGGGAGAUAAAGCUGUGUACUGCCGUUGUUGGAGCAACAGAGGAUUGAGCAUCA
# B4: chr6:11183298:11183399:-|3pUTR|ENSG00000111859|msi1|total|mutant (ssRNA)
# RNA: GGGAGUUCUACAGUCCGACGAUCACAUUUCACAUUUUUAAAACCAAAUGUUCAAUCUGUAUUACUCUUUGCCGUCUUGUAUGCCGAGGCUAUUUUUAAAUCAUUAAAUUUUCCGAUCUCUGUUUUCACCGCCACUGGGUUUUCCAACAGAGGAUUGAGCAUCA
# B5: chr1:193096648:193096749:-|CDS|ENSG00000023572|msi1_unk|total|mutant (ssRNA)
# RNA: GGGAGUUCUACAGUCCGACGAUCCAACAGGUUCCAAGAAUAUUUGUCAAUGGUACUUUUAUUGGAGGUGCAACUGACACUCACCGGCUUCACAAAGAAGGAAAAUUGCUCCCACCCGUUCAUCAGUGUUAUUUAAAAAAAAGUCAACAGAGGAUUGAGCAUCA
# B6: ENSG00000124766:be:win_3151|3pUTR|ENSG00000124766|bound_else_gene|NA|bound_elsewhere_windowed (ssRNA)
# RNA: GGGAGUUCUACAGUCCGACGAUCUUUCUCAGUGUAUUUUUGUAAAAAAUAUAUAAAGGGGGUGUUAAUCGGUGUAAAUCGCUGUUUGGAUUUCCUGAUUUUAUAACAGGGCGGCUGGUUAAUAUCUCACACAGUUUAAAAAAUCAACAGAGGAUUGAGCAUCA
# B7: chr19:50958630:50959316:-|three_prime_utr|ENSG00000167755|control|control|control (ssRNA)
# RNA: GGGAGUUCUACAGUCCGACGAUCAUGUGACAUCUACCUCCCGACCUACCACCCCACUGGCUGGUUCCAGAACGUCUCUCACCUAGACCUUGCCUCCCCUCCUCUCCUGCCCAGCUCUGACCCUGAUGCUUAAUAAACGCAGCGCAACAGAGGAUUGAGCAUCA
# B8: chr4:52598568:52598706:-|three_prime_utr|ENSG00000109189|control|control|control (ssRNA)
# RNA: GGGAGUUCUACAGUCCGACGAUCGCAUUAUAUCACUAUUGUGAAAAGUCACGGCUUCUGGCUUUUGUUUGAUGAUGACAUUGUAGAGGUUGGUUUGCAGAUUAUUCUCCAGUAGUCAUAGAGCAUCAGUAGUAUUUCGGAGAACAACAGAGGAUUGAGCAUCA
# B9: ENSG00000198589:be:win_4851|CDS|ENSG00000198589|bound_else_gene|NA|bound_elsewhere_windowed (ssRNA)
# RNA: GGGAGUUCUACAGUCCGACGAUCCCAUGUGGAAGUAACUCCUCACACAGCACCUCCUGGUGUCAGUGCAGGCCCAGAUGCAAUCAGCGAGGUGCUAUCUACUCUUUCUUUAGAAGUCAAUAAGUCUCCGGAAACCAAAAAUGACAACAGAGGAUUGAGCAUCA
# B10: chr19:38730201:38730298:+|3pUTR|ENSG00000130402|msi1_unk|total|mutant (ssRNA)
# RNA: GGGAGUUCUACAGUCCGACGAUCCAGAGAAUUACUAUUUACUUUAUUAACUUACGGAUUUAUUAUAUAAAUAUAUAUUCACCCCGCAACAUAUCUCUGCCGUCUCUCCUGCUCUCAUAAUGAAGACACCGCCGAUUCUCUGCCCAACAGAGGAUUGAGCAUCA
# B11: chr9:113042727:113044268:-|CDS|ENSG00000136866|control|control|control (ssRNA)
# RNA: GGGAGUUCUACAGUCCGACGAUCCAUCAGAGAGUUCAUACUGGAGAGAAACCGUAUGAGUGUAAUGAAUGUGGGAAAGCCUUUAGCCAAAAGUCUCACCUCAUUGUACAUCAGAGAACUCAUACUGGGGAGAAACCUUAUGAACAACAGAGGAUUGAGCAUCA
# B12: chr3:196319341:196319897:-|three_prime_utr|ENSG00000145107|control|control|control (ssRNA)
# RNA: GGGAGUUCUACAGUCCGACGAUCAUCACAGGUGCGAGUCACCGUGCCUGGCCAACUAAUGAAAAGUUUAAAGAAUUUAUAUCUAGUUUUGGAUGUUAGGCAUGCACACACAAGUGCAUGCACACUCAUACACAUCAUCUCCACCAACAGAGGAUUGAGCAUCA
# B13: chr7:100033925:100034026:+|CDS|ENSG00000106261|msi1|FALSE|bound_elsewhere (ssRNA)
# RNA: GGGAGUUCUACAGUCCGACGAUCCAGAGCUCGGACCUCACCAAGCAUCAGAGAAUUCACACGGGGGAGAAACCCUAUGAAUGUAGUGAAUGUGGAAAAGCUUUCAACCGAAACUCAUACCUGAUUUUGCAUCGGAGAAUUCACCAACAGAGGAUUGAGCAUCA
# B14: chr14:23275577:23277187:-|CDS|ENSG00000290292|control|control|control (ssRNA)
# RNA: GGGAGUUCUACAGUCCGACGAUCGCAGGUGCUGGAUUGGUUUGACUCUCGAUUACCUCAGCCAGCUGAGGUGGUAGUUUGUCUAGAUGAAGAAGAGGAAGAGGAGGAGGAAGAACUGCCAGAAGAUGAUGAGGAAGAGGAGGACAACAGAGGAUUGAGCAUCA
# B15: chr14:102081487:102081564:-|3pUTR|ENSG00000080824|msi1_unk|total|mutant (ssRNA)
# RNA: GGGAGUUCUACAGUCCGACGAUCGAAGAUAAGAUUUCUGUCUACUAAGUGAUGCUGUGAUACCUCCGGCACUAAAGCAGAGCCCGUAAUGCUUUUUGAGUUUCAUGUUGGUUUAUUUUCACAGAUUGGGGUAACGUGCACUGUCAACAGAGGAUUGAGCAUCA
# B16: ENSG00000136935:stop:overlap|stop_codon|ENSG00000136935|stop_codon|NA|stop_codon (ssRNA)
# RNA: GGGAGUUCUACAGUCCGACGAUCAACCAGCUCCCAAGGGCAGCAUCCGGCCGUCUAUCUCAAACCCUCGGAUACCAUGGUCCUAGAGGGGACUACCCAAGGAUGGAGCUCCGUGGGUUGACACUUUUUCUGUGAAAAGAACACCAACAGAGGAUUGAGCAUCA
# B17: chr1:111147767:111147876:+|CDS|ENSG00000134255|unk|total|mutant (ssRNA)
# RNA: GGGAGUUCUACAGUCCGACGAUCAUUAAAUAAAUUGUUUCAGUUACCAACACCACCAUUGUCAAGACACCAACUAAAGCGGCCCGAAGAACACAGAUAUCAAAGUGCUGGACGGUCCCUGCUUGAGCCCUUAAUGCAAGGGUACAACAGAGGAUUGAGCAUCA
# B18: chr21:36896991:36897096:-|CDS|ENSG00000159267|unk|FALSE|bound_elsewhere (ssRNA)
# RNA: GGGAGUUCUACAGUCCGACGAUCCAGUGGCUUGGGAAACAUGUGGACUCCGAGGGAGAAAUAAAAUCCGGCCAGCUCUCUCUUAGAUUUGUUUCAUCCUACGUGUCUGAAGUAGAAAUAACCCCAUCUUGUAUACCUGUGGUGCAACAGAGGAUUGAGCAUCA
# B19: chr1:20742972:20743075:-|3pUTR|ENSG00000127483|unk|total|mutant (ssRNA)
# RNA: GGGAGUUCUACAGUCCGACGAUCUAACCCUUUCUUAUUUGUAUUUGUUUCCGUAUUGUGAAGUUGUGUUAAACCGUACCCGCCCGAAAUACAAAUUUCUGGUUAUCAUUUCUCUUCCCUGUGGCACUUGACAUUUUAAUUGUCCAACAGAGGAUUGAGCAUCA
# B20: chr1:213241217:213241334:+|CDS|ENSG00000136643|unk|FALSE|unique (ssRNA)
# RNA: GGGAGUUCUACAGUCCGACGAUCAGUUCUCCAAGAACAUCAGAUUCCCUCAGUAGAUCAAAAAAUAGCCCCAUGGAAUUCUUUAGGAUAGACAGUAAGGAUAGCGCAAGUGAACUCCUGGGACUUGACUUUGGAGAAAAAUUGCAACAGAGGAUUGAGCAUCA
# B21: ENSG00000155506:stop:overlap|stop_codon|ENSG00000155506|stop_codon|NA|stop_codon (ssRNA)
# RNA: GGGAGUUCUACAGUCCGACGAUCAGAACGCAUUGCCGCCGGUCCUGACCACCGUGAACGGACAGUCCCCCCCAGAUACCCUUUAGGGCUGGUUUGCCUUAGUUGAGGAAGAAGACCCUCCUAGGGACUCUGUCUGCCAUCCACCAACAGAGGAUUGAGCAUCA
# B22: chr11:10797513:10797714:-|3pUTR|ENSG00000110321|msi1_unk|total|mutant (ssRNA)
# RNA: GGGAGUUCUACAGUCCGACGAUCUUCUGCAUAAGGUUUUUUUGCCGUGUAAUGUCUUAAUCACCGUCUACCAUCAAAUAUUUCCGGAGUAUCUUUAAUGUUCCGACCGUAUAUCCGCAGCAUGCAAUAAUUACAUCAUAAGUUCAACAGAGGAUUGAGCAUCA
# Biological target: MSI1 full-length (mouse, UniProt Q61474 1-362)
# Assay: nsRBNS (natural sequence RNA bind-n-seq); RBNS binding buffer (assumed for nsRBNS): 25 mM Tris pH 7.5, 150 mM KCl, 3 mM MgCl2, 0.01% Triton X-100, 500 ug/ml BSA, 20 U/ml SUPERase-In, 4 C; UNK is unkempt and MSI1 is Musashi-1; names of the RNAs are library labels; protein concentration not given here; high values mean tight binding
# Chain of UniProt Q61474 (Q61474 whole entry): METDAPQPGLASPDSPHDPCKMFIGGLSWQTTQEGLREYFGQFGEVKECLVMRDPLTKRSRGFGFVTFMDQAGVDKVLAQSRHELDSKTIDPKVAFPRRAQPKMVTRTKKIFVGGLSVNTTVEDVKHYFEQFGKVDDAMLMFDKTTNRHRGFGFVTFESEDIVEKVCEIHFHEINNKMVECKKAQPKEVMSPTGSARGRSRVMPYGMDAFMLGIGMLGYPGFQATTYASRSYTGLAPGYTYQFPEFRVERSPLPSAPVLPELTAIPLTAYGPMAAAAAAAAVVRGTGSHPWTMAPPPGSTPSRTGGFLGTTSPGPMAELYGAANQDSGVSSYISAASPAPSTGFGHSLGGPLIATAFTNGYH
row,Binder,binding signal [enrichment R]
1,B1,0.42
2,B2,25
3,B3,0.346
4,B4,0.663
5,B5,0.509
6,B6,0.602
7,B7,0.792
8,B8,9.94
9,B9,0.817
10,B10,5.81
11,B11,0.321
12,B12,1.15
13,B13,0.412
14,B14,1.23
15,B15,0.346
16,B16,0.414
17,B17,0.854
18,B18,0.721
19,B19,1.4
20,B20,24.6
21,B21,1.09
22,B22,1.63
